Laboratory results as given in PubChem BioAssay AID463173 (ICCB-Longwood Screening Facility, Harvard Medical School, 2010).
About 4,300 (8.3%) of roughly 52,000 compounds were called active. Cut-off read from the data, not from the text of the source: active = survival mostly below about 52% (no sharp cut-off); inactive = mostly above about 56%. This is one part of the list.

Each molecule was assayed on DeltatarO mutant (assay: S. aureus survival, RN4220 and DeltatarO strains – OD600, teichoic acid synthesis inhibitors, primary screen (AID 463173)). Details: S. aureus RN4220 wild type/DeltatarO growth, OD600, 18 h, hits give low values, screened at 18.75 µg/mL (by protocol).
In the case of `COC(=O)c1ccccc1NC(=O)c1cc(=O)c2ccc(C)c(C)c2o1`, the survival is reported as inactive: 72%. With `Cn1nnnc1SCCCNCc1ccccc1OCc1ccccc1F` the survival was inactive: 72%. With `CC(=O)c1ccc(NC(=O)c2ccc(CN3C(=O)CCn4nc(C)cc43)cc2)cc1` the survival was inactive: 76%. For `Cc1ccc(S(=O)(=O)Nc2ccc3c(c2)c(C(=O)OC(C)C)c(C)n3S(=O)(=O)c2ccc(C)cc2)cc1`, the survival was inactive: 87%. With `COc1ccc(S(=O)(=O)NCCc2cn3ccsc3n2)cc1` the survival was inactive: 86%. `O=C(CCC1N=C2c3ccccc3N=C(SCc3cccc(F)c3)N2C1=O)NCc1ccc(F)cc1` (configuration not stated) was tested, and the survival was inactive: 72%. With `Cc1ccc(CCNC(=O)CN2CCN(Cc3ccc(Cl)cc3)C2=O)cc1` the survival was inactive: 67%. `O=S(=O)(Nc1ccc(Br)cc1)c1ccc2nc(-c3ccccc3)[nH]c2c1` was tested, and the survival was active: -1%. For `CCc1ccc(NC(=O)Cn2nnc(C(=O)Nc3cc(C)ccc3OC)c2N)cc1`, the survival was inactive: 102%. In the case of `O=C(Nc1ccccc1Br)N1CCN2CCCCC2C1` (configuration not stated), the survival is reported as inactive: 93%. With `CCc1c(C)nc2nncn2c1Nc1cccc(C)c1` the survival was inactive: 85%. For `COc1ccc(-c2nc(SCC(=O)Nc3cccc(C(C)=O)c3)n[nH]2)cc1`, the survival was inactive: 128%. With `Fc1ccc(-c2noc3ncnc(N4CCCCC4)c23)cc1` the survival was inactive: 102%. For `N#Cc1ccccc1S(=O)(=O)N1CCC(Oc2ccc(-n3cnnn3)cc2)CC1`, the survival was inactive: 82%. In the case of `COc1cccc(/C=C2/SC(=O)N(C)C2=O)c1O`, the survival is reported as inactive: 83%. With `COc1ccc(Cc2nc3ccc(C(=O)NCc4cc(Br)ccc4OC)cc3o2)cc1` the survival was inactive: 93%. In the case of `CCCCNC(=O)CCCn1c(=O)c2ccccc2n(Cc2ccc(Cl)cc2)c1=O`, the survival is reported as inactive: 128%. With `COc1ccc(C2CC(=O)c3cnc4c(-c5ccccc5)c(C)nn4c3C2)c(OC)c1` (configuration not stated) the survival was inactive: 82%. With `COc1ccc2c(c1)c1c(c(=O)n(-c3ccc(OC)c(OC)c3)c(=O)n1Cc1ccc(C)cc1)n2C` the survival was inactive: 73%. For `CC(C)n1c(SCC(=O)N2CCc3ccccc32)nc2c1c(=O)n(C)c(=O)n2C`, the survival was inactive: 66%. In the case of `COc1ccccc1CNC(=O)CCCn1c(=O)c2cccn2c2ccccc21`, the survival is reported as inactive: 76%. With `Cc1[nH]c2ccccc2c1/C=C(\C#N)C(=O)NCc1ccco1` the survival was inactive: 62%. In the case of `Cn1c(=O)c2c(ncn2CC(=O)Nc2cc(Cl)cc(Cl)c2)n(C)c1=O`, the survival is reported as inactive: 66%. In the case of `Cn1cc(S(=O)(=O)N2CCCCCC2)cc1C(=O)N1CCN(c2ccc(Cl)cc2)CC1`, the survival is reported as inactive: 78%. For `Clc1ccc(CCNC(c2cccc(Cl)c2)c2nnc(-c3ccccc3)o2)cc1` (configuration not stated), the survival was active: 11%. In the case of `Cc1nn(C)c2c1c(C(F)(F)F)cc(=O)n2C(C)C(=O)N1CCN(c2ccccc2)CC1` (configuration not stated), the survival is reported as inactive: 86%. In the case of `CCOC(=O)c1c(C)oc2ncnc(N3CCN(c4cccc(Cl)c4)CC3)c12`, the survival is reported as inactive: 110%. For `COc1ccc(Cl)cc1NC(=O)CSc1nc2ccccc2nc1N1CCCCC1`, the survival was active: 27%. `CCOC(=O)c1c(C)[nH]c(C)c1S(=O)(=O)N1CCN(c2ccccc2OC)CC1` was tested, and the survival was inactive: 122%. For `CCOC(=O)c1c(NC(=O)CS(=O)(=O)c2ccc(Cl)cc2)sc2c1CCCC2`, the survival was inactive: 77%. `COc1ccc(CCC(=O)NCc2nc3cccnc3n2Cc2ccc(OC)cc2)cc1` was tested, and the survival was inactive: 77%. In the case of `CNC(=O)C1CCN(C(=O)N2CC(C)Oc3ccc(C)cc32)CC1` (configuration not stated), the survival is reported as inactive: 86%. With `O=C(CN1CCN(c2cccc(Cl)c2)CC1)Nc1nccs1` the survival was inactive: 93%. With `O=S(=O)(Nc1ccc(O)cc1)c1cccs1` the survival was inactive: 83%. In the case of `Cc1ccc(C)c(NC(=O)Cn2nnc(C(=O)NCc3ccco3)c2N)c1`, the survival is reported as inactive: 102%. `COc1ccc(NC(=O)C2CCN(c3nc(-c4ccc(OC)c(OC)c4)no3)CC2)cc1Cl` was tested, and the survival was inactive: 54%. For `COc1ccc(-c2cc(C(=O)OCC(=O)c3cccc(OC)c3)c3cccc(Cl)c3n2)cc1`, the survival was inactive: 74%. For `CCOC(=O)c1c(NC(=O)c2cc(=O)c3c(C)cc(C)cc3o2)sc2c1CCC2`, the survival was inactive: 61%. With `COc1ccccc1N(C)C(=O)Cn1c(=O)oc2cc(S(=O)(=O)N3CCCC3)ccc21` the survival was inactive: 123%. With `Cc1ccccc1CNC(=O)C1CCCN(c2nnc(-n3c(C)ccc3C)s2)C1` (configuration not stated) the survival was inactive: 72%. For `Cc1ccc(CNC(=O)Cn2c(=O)n(-c3ccccc3)c(=O)c3c2c2cc(C)ccc2n3C)cc1`, the survival was inactive: 94%. `Cc1ccc(NC(=O)CCSc2nc(-c3ccc4c(c3)OCO4)cc(C(F)(F)F)n2)cc1` was tested, and the survival was inactive: 66%. `CCCCN(C)CCNC(=O)Cn1ncc2c([nH]c3ccccc32)c1=O` was tested, and the survival was active: 8%. `CCN(CC)CCNc1c2c(nc3cc(-c4ccc(OC)c(OC)c4)nn13)CCC2` was tested, and the survival was inactive: 80%. In the case of `CCc1ccc(Oc2nc3c(C)cccn3c(=O)c2/C=C(\C#N)c2nc3ccccc3s2)cc1`, the survival is reported as inactive: 71%. `O=C(c1ccc(Cl)cc1)n1nc(-c2ccco2)nc1NCc1cccs1` was tested, and the survival was inactive: 68%. With `O=C(O)CCc1ccc(-c2ccccc2)n1-c1cccc(Br)c1` the survival was inactive: 65%. With `COc1cc(/C=C/c2nc(C#N)c(NC(C)c3ccccc3)o2)cc(OC)c1OC` (configuration not stated) the survival was active: 40%. For `CN(Cc1ccccc1)C(=O)c1cc2c(s1)-c1ccc(Cl)cc1SC2`, the survival was inactive: 86%. In the case of `CCOc1ccc(CNC(=O)Cn2c(=O)c3cccn3c3ccc(F)cc32)cc1OC`, the survival is reported as inactive: 47%. With `O=C(CCCCn1c(=O)c2ccccc2n(CC(=O)Nc2cccc(F)c2)c1=O)NCc1ccccc1Cl` the survival was inactive: 89%. With `CCOC(=O)c1c(S(=O)(=O)N2CCCC(C(=O)Nc3ncccc3C)C2)c(C)n(C)c1C` (configuration not stated) the survival was inactive: 76%. With `O=C(OCc1ccccc1Cl)c1ccc(-c2nnn(Cc3ccccc3Cl)n2)cc1` the survival was inactive: 56%. With `Cc1ccc(NC(=O)CCc2c(C)nn(-c3ccc(N4CCOCC4)nn3)c2C)cc1F` the survival was inactive: 98%. With `COc1ccc(N(C(=O)COc2ccc(Br)cc2)S(=O)(=O)c2ccc(C)cc2)cc1` the survival was inactive: 81%. With `O=C(O)c1cccc(-n2cccc2)c1` the survival was inactive: 97%. With `Cc1ccc(-n2ncc3c(N(CCO)Cc4ccccc4)ncnc32)cc1` the survival was active: 8%. `COc1ccc(CCCc2nnc(SCC(=O)Nc3ccccc3F)o2)cc1C` was tested, and the survival was inactive: 49%. In the case of `CCOCCCNC(=O)CN1C(=O)c2c(c3ccccc3n2C)C1c1ccc(OC)cc1` (configuration not stated), the survival is reported as inactive: 84%. With `COc1cccc(N(Cc2nnc3n2CCCCC3)C(=O)Nc2cccc(Cl)c2)c1` the survival was inactive: 81%. `O=C(O)CC1c2ccccc2Oc2ccccc21` was tested, and the survival was inactive: 92%. With `CCOc1ccccc1NC(=O)N1CCCn2nc(C)cc21` the survival was inactive: 86%. With `O=C(NCC(c1cccs1)S(=O)(=O)c1cccs1)c1ccc(C(F)(F)F)cc1` (configuration not stated) the survival was inactive: 89%. In the case of `COc1ccccc1NC(=O)c1ccc2[nH]c(C)cc(=O)c2c1`, the survival is reported as inactive: 77%. For `Cc1cc(Br)ccc1NC(=O)COc1cc(=O)n(C)c2ccccc12`, the survival was inactive: 111%. In the case of `CN(C)c1ccc(C(CNC(=O)c2ccccc2Cl)N2CCc3ccccc32)cc1` (configuration not stated), the survival is reported as active: 37%. With `CCCCOc1ccc(C(=O)NCCS(=O)(=O)N2CCN(c3ccccc3OC)CC2)cc1` the survival was inactive: 94%. For `Cc1ccc2oc(-c3cc(NC(=O)Cc4ccccc4)ccc3Cl)nc2c1`, the survival was active: 52%. In the case of `c1ccc(Cn2nnnc2C(c2cccnc2)N2CCN(c3ccccc3)CC2)cc1` (configuration not stated), the survival is reported as inactive: 83%. In the case of `CCN(C(=O)CSc1nc2ccccc2nc1Cc1cccc(OC)c1)c1cccc(C)c1`, the survival is reported as active: 0%. With `O=C(NC1CC(=O)N(c2ccc(F)cc2)C1)c1ccc(S(=O)(=O)N2CCCC2)cc1` (configuration not stated) the survival was inactive: 69%. In the case of `O=C(COc1ccc(Cl)cc1)Nc1ccc(O)c(-c2nc3ccccc3s2)c1`, the survival is reported as inactive: 94%. `Cc1ccc(Cn2c(C(=O)O)c(CNCCc3cccs3)c3ccc(C)cc32)cc1` was tested, and the survival was inactive: 82%. With `Cc1ccc(NC(=O)Nc2nc3c(s2)CCCCCC3)cc1C` the survival was inactive: 69%. With `Cc1ccc2c(c1)cc(C(=O)NCc1ccc(F)cc1)n2C` the survival was inactive: 70%. With `COc1ccccc1N1CCN(c2ccc(=O)n(CC(=O)O)n2)CC1` the survival was inactive: 87%. With `CCOCC(=O)Nc1ccc(-c2cn3c(C)csc3n2)cc1` the survival was inactive: 130%. With `Cc1ccc2[nH]c(=O)c(-c3nc4c(C)cccn4c3NCc3ccco3)cc2c1` the survival was inactive: 61%. In the case of `NCC(O)CNCCc1ccccc1` (configuration not stated), the survival is reported as inactive: 98%. For `O=c1c2sc3ccccc3c2n(Cc2ccccc2F)c(=O)n1-c1ccccc1Cl`, the survival was inactive: 88%. With `Cc1ccccc1NC(=O)c1c(C)oc2ccc(O)c(CN3CCCC(C)C3)c12` (configuration not stated) the survival was inactive: 108%. With `COc1cccc(CNC(=O)CSc2nc3ccccc3nc2Cc2ccccc2)c1` the survival was inactive: 69%. `COc1cc2c(cc1OC)C(c1ccc(F)cc1)N(c1ccccc1)C(=O)C2` (configuration not stated) was tested, and the survival was inactive: 74%. In the case of `Cc1nnc(N2CCC(C(=O)NCc3ccc(F)cc3)CC2)c2nn(-c3ccc(Cl)cc3)c(C)c12`, the survival is reported as inactive: 104%. For `CCN(CC)S(=O)(=O)c1ccc2nc(NC(=O)c3ccccc3OC)sc2c1`, the survival was inactive: 89%. With `CCOc1ccc(C2C(C(N)=O)=C(C)Nc3nc(-c4ccc(OC)cc4)nn32)cc1` (configuration not stated) the survival was inactive: 87%. `O=C(C1CCN(S(=O)(=O)c2ccc(Br)s2)CC1)N1CCN(c2ccc(F)cc2)CC1` was tested, and the survival was inactive: 87%. For `COc1ccccc1C(=O)Nc1cccc(OCc2cc(=O)n3c4c(sc3n2)CCCC4)c1`, the survival was active: 39%. For `COc1ccccc1Nc1nn2c(=O)c3ccc(C(=O)NC4CCC(C)CC4)cc3nc2s1` (configuration not stated), the survival was inactive: 79%. With `COc1ccccc1NC(=O)C1=C(C)NC(=S)NC1C` (configuration not stated) the survival was inactive: 86%. For `COc1cccc(CNc2ncnc3c2nnn3C)c1`, the survival was inactive: 87%. With `CNC(=O)C1CCC(Cn2c(=O)c3sccc3n(CC(=O)N3CCCC3)c2=O)CC1` (configuration not stated) the survival was inactive: 83%.
